Publication PMC11791083
These are yes or no findings as the source states them, for the method shown. Binding seen in cells or lysates may run through a third protein. Some binding calls cover weakened binding; strength is not graded here. For some assays here: Tags and fused reporters may be left off the sequences shown. One block for each binder: values may come before it.

Amino acid sequences for entries named in this document (tags omitted).
UniProt Q15717: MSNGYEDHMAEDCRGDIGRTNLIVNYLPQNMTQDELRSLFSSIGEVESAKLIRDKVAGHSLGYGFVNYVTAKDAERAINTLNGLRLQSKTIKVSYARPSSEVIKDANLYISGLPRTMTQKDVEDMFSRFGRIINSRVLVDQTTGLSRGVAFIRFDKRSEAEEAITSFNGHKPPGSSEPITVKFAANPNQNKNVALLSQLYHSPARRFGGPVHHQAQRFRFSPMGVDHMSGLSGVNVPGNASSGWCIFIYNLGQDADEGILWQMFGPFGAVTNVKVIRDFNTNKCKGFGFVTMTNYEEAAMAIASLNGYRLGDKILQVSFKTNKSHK

Experiments:
[1] = target: T1, heterogeneous nuclear ribonucleoprotein M, C-terminally GFP-tagged (hnRNPM-GFP) (human), P52272; assay: co-IP; GFP-Trap magnetic agarose on lysates of THP-1 cells expressing hnRNPM-GFP or GFP, non-stimulated or pDNA-stimulated (0.1 µg/ml, 3 h); TAP lysis buffer, 4 °C overnight; IPs with or without RNase A (100 µg/ml, 1.5 h); immunoblot; details: remark: other sources report otherwise
T1 chain: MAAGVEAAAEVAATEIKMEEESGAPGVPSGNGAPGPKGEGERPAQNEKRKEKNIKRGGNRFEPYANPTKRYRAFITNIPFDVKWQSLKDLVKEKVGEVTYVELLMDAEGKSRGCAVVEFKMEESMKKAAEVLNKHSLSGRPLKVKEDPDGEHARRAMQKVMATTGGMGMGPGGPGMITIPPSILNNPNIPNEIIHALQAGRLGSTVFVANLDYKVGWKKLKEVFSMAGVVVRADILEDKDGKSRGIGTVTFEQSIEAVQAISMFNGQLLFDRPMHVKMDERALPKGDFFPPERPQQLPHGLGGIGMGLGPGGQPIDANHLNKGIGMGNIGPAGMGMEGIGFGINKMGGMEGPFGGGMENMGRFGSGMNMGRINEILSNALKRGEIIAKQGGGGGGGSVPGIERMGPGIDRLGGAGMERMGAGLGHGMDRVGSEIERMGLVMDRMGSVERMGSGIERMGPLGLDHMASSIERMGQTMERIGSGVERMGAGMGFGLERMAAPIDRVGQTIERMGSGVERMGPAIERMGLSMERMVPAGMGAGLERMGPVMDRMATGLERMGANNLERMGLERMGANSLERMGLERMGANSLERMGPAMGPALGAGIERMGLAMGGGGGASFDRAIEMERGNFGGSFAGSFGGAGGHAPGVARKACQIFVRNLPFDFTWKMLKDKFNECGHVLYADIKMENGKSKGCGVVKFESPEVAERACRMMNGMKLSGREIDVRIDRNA

[2] = target: T1, heterogeneous nuclear ribonucleoprotein …; assay: proximity ligation; Duolink PLA in fixed PMA-differentiated THP-1 cells expressing hnRNPM-GFP, ELAVL1-GFP or GFP, non-stimulated or transfected with G3-YSD-AF647 (0.5 µg/ml, 4 h); anti-GFP with anti-pTBK1-Ser172 or anti-ELAVL1; puncta per cell counted as PLA score; details: remark: other sources report otherwise
[3] = target: ELAV-like protein 1, FLAG-tagged (ELAVL1-FLAG) (human), Q15717; assay: co-IP; anti-FLAG M2 magnetic beads on lysates of HEK293FT cells transfected with ELAVL1-FLAG or WT cells; 4 °C overnight; IPs with or without RNase A (100 µg/ml, 1.5 h); elution with 3x FLAG peptide; immunoblot; details: remark: other sources report otherwise
[4] = target: ELAV-like protein 1, GFP-tagged (ELAVL1-GFP) (human) (UniProt Q15717); assay: proximity ligation; Duolink PLA in fixed PMA-differentiated THP-1 cells expressing hnRNPM-GFP, ELAVL1-GFP or GFP, non-stimulated or transfected with G3-YSD-AF647 (0.5 µg/ml, 4 h); anti-GFP with anti-pTBK1-Ser172 or anti-ELAVL1; puncta per cell counted as PLA score

binding [3]: binds
B2: IκB kinase β (IKKβ), endogenous in HEK293FT, O14920 1-756 (protein)
chain: MSWSPSLTTQTCGAWEMKERLGTGGFGNVIRWHNQETGEQIAIKQCRQELSPRNRERWCLEIQIMRRLTHPNVVAARDVPEGMQNLAPNDLPLLAMEYCQGGDLRKYLNQFENCCGLREGAILTLLSDIASALRYLHENRIIHRDLKPENIVLQQGEQRLIHKIIDLGYAKELDQGSLCTSFVGTLQYLAPELLEQQKYTVTVDYWSFGTLAFECITGFRPFLPNWQPVQWHSKVRQKSEVDIVVSEDLNGTVKFSSSLPYPNNLNSVLAERLEKWLQLMLMWHPRQRGTDPTYGPNGCFKALDDILNLKLVHILNMVTGTIHTYPVTEDESLQSLKARIQQDTGIPEEDQELLQEAGLALIPDKPATQCISDGKLNEGHTLDMDLVFLFDNSKITYETQISPRPQPESVSCILQEPKRNLAFFQLRKVWGQVWHSIQTLKEDCNRLQQGQRAAMMNLLRNNSCLSKMKNSMASMSQQLKAKLDFFKTSIQIDLEKYSEQTEFGITSDKLLLAWREMEQAVELCGRENEVKLLVERMMALQTDIVDLQRSPMGRKQGGTLDDLEEQARELYRRLREKPRDQRTEGDSQEMVRLLLQAIQSFEKKVRVIYTQLSKTVVCKQKALELLPKVEEVVSLMNEDEKTVVRLQEKRQKELWNLLKIACSKVRGPVSGSPDSMNASRLSQPGQLMSQPSTASNSLPEPAKKSEELVAEAHNLCTLLENAIQDTVREQDQSFTALDWSWLQTEEEEHSCLEQAS

binding [4]: binds
B4: TBK1 phosphorylated at Ser172 (pTBK1-Ser172), endogenous in THP-1 (protein, UniProt Q9UHD2 1-729)
chain: MQSTSNHLWLLSDILGQGATANVFRGRHKKTGDLFAIKVFNNISFLRPVDVQMREFEVLKKLNHKNIVKLFAIEEETTTRHKVLIMEFCPCGSLYTVLEEPSNAYGLPESEFLIVLRDVVGGMNHLRENGIVHRDIKPGNIMRVIGEDGQSVYKLTDFGAARELEDDEQFVSLYGTEEYLHPDMYERAVLRKDHQKKYGATVDLWSIGVTFYHAATGSLPFRPFEGPRRNKEVMYKIITGKPSGAISGVQKAENGPIDWSGDMPVSCSLSRGLQVLLTPVLANILEADQEKCWGFDQFFAETSDILHRMVIHVFSLQQMTAHKIYIHSYNTATIFHELVYKQTKIISSNQELIYEGRRLVLEPGRLAQHFPKTTEENPIFVVSREPLNTIGLIYEKISLPKVHPRYDLDGDASMAKAITGVVCYACRIASTLLLYQELMRKGIRWLIELIKDDYNETVHKKTEVVITLDFCIRNIEKTVKVYEKLMKINLEAAELGEISDIHTKLLRLSSSQGTIETSLQDIDSRLSPGGSLADAWAHQEGTHPKDRNVEKLQVLLNCMTEIYYQFKKDKAERRLAYNEEQIHKFDKQKLYYHATKAMTHFTDECVKKYEAFLNKSEEWIRKMLHLRKQLLSLTNQCFDIEEEVSKYQEYTNELQETLPQKMFTASSGIKHTMTPIYPSSNTLVEMTLGMKKLKEEMEGVVKELAENNHILERFGSLTMDGGLRNVDCL
modifications: phosphoserine at 172

More lines, now with the values behind:

B1: TBK1 phosphorylated at Ser172 (pTBK1-Ser172), endogenous in THP-1, Q9UHD2 1-729 (protein)
chain: B4 chain
modifications: here or on the partner: phosphoserine at 172
binding [1]: binds
binding [2]: binds

B3: IκB kinase ε (IKKε), endogenous in HEK293FT, Q14164 1-716 (protein)
chain: MQSTANYLWHTDDLLGQGATASVYKARNKKSGELVAVKVFNTTSYLRPREVQVREFEVLRKLNHQNIVKLFAVEETGGSRQKVLVMEYCSSGSLLSVLESPENAFGLPEDEFLVVLRCVVAGMNHLRENGIVHRDIKPGNIMRLVGEEGQSIYKLTDFGAARELDDDEKFVSVYGTEEYLHPDMYERAVLRKPQQKAFGVTVDLWSIGVTLYHAATGSLPFIPFGGPRRNKEIMYRITTEKPAGAIAGAQRRENGPLEWSYTLPITCQLSLGLQSQLVPILANILEVEQAKCWGFDQFFAETSDILQRVVVHVFSLSQAVLHHIYIHAHNTIAIFQEAVHKQTSVAPRHQEYLFEGHLCVLEPSVSAQHIAHTTASSPLTLFSTAIPKGLAFRDPALDVPKFVPKVDLQADYNTAKGVLGAGYQALRLARALLDGQELMFRGLHWVMEVLQATCRRTLEVARTSLLYLSSSLGTERFSSVAGTPEIQELKAAAELRSRLRTLAEVLSRCSQNITETQESLSSLNRELVKSRDQVHEDRSIQQIQCCLDKMNFIYKQFKKSRMRPGLGYNEEQIHKLDKVNFSHLAKRLLQVFQEECVQKYQASLVTHGKRMRVVHETRNHLRLVGCSVAACNTEAQGVQESLSKLLEELSHQLLQDRAKGAQASPPPIAPYPSPTRKDLLLHMQELCEGMKLLASDLLDNNRIIERLNRVPAPPDV
binding [3]: binds
